Hit rate of the full screen: of about 2,000 compounds, about 45 (2%) were called active.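 How the source made its calls: active means inhibition above the mean of all tested compounds plus 3 SD (cut at about 49% in these data); inactive means the rest.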 The list shows a part of the results.

This experiment addresses Perilipin-5 (Homo sapiens) + 1-acylglycerol-3-phosphate O-acyltransferase ABHD5 (Homo sapiens) (UniProt Q00G26+Q8WTS1). Briefly: blockers of ABHD5 binding to perilipin-5 – cell lysate, split luciferase complementation, luminescence, NIH validation set, pilot screen (AID 493035).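 Further: 0% = DMSO only wells while the 100% control is not stated.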 As to conditions: split G. princeps luciferase complementation, lysates, 4 h; at 7.9 µM, stronger effect = higher value.
Chain of UniProt Q00G26 (Q00G26 whole entry, looked up): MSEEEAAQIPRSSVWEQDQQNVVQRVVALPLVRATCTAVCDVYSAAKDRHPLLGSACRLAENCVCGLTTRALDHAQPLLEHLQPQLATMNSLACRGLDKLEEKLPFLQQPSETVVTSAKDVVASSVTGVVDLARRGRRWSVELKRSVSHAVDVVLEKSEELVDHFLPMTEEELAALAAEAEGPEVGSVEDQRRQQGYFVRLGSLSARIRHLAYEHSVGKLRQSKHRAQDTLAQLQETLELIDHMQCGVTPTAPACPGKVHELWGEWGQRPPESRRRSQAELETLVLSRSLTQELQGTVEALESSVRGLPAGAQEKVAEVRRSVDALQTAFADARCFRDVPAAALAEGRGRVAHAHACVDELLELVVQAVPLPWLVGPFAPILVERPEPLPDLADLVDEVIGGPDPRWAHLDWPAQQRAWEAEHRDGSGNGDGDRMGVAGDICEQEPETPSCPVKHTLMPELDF
Chain of UniProt Q00G26 (Q8WTS1 whole entry, looked up): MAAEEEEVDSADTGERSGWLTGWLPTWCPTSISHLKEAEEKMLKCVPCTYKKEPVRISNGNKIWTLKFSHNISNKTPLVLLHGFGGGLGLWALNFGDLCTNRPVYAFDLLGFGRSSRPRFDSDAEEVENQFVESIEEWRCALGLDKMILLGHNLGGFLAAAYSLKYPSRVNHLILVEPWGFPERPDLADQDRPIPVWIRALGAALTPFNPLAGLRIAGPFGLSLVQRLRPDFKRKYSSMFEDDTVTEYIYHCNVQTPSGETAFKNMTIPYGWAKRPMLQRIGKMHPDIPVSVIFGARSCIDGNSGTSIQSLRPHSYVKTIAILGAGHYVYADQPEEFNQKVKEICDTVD
A word on the inhibition: it is the drop in the measured response relative to a control, in per cent. In the case of `CCSc1nc(O)c(C2OC(=O)c3c2ccc(OC)c3OC)c(=O)n1CC` (stereo unspecified), the inhibition was inactive: 0.24%.
On to `COCCOC(=O)C1=C(N)OC2=C(C(=O)CCC2)C1c1cccnc1` (stereo unspecified), for which the inhibition was inactive: 0.01%.
With `Cn1c2ccc(CC(=O)O)cc2c2cc(CC(=O)O)ccc21`, the inhibition is inactive: 5.41%.
With `NS(=O)(=O)c1cc2c(cc1Cl)NC(CSCc1ccccc1)=NS2(=O)=O`, the inhibition is inactive: -6.59%.
As for `CCNC(=O)c1sc2cc(C)ccc2c1Cl`, the figure is inactive: -3.52%.
With `COc1cc(NC(=O)N[C@@H](Cc2ccccc2)C(=O)O)cc(OC)c1`, the inhibition was inactive: -7.47%.
As for `Cc1cc(NS(=O)(=O)c2ccc(N)cc2)no1`, the inhibition is inactive: -7.6%.
For `COc1ccc2[nH]c3c(c2c1)CCn1c-3nc2ccccc2c1=O`, the inhibition is inactive: -4.19%.
On to `Cc1ccc2nc(NC3=NC(CC(=O)O)C(=O)N3)nc(C)c2c1` (stereo unspecified), for which the inhibition was inactive: 2.57%.
In the case of `CC(=O)[C@@]1(O)CC[C@H]2[C@@H]3C[C@H](C)C4=CC(=O)CC[C@]4(C)[C@H]3CC[C@@]21C` it was inactive: -6.6%; in that of `CC1(C)S[C@@H]2[C@H](NC(=O)C(C(=O)O)c3ccccc3)C(=O)N2[C@H]1C(=O)O` (stereo partly specified), inactive: -2.82%.
As to `OCC1(CCOc2ccccc2)CCN(CCCn2cccn2)CC1`, the inhibition was inactive: 1.14%.
With `CCOC(=O)c1ncn2c1CN(C)C(=O)c1cc(F)ccc1-2`, the inhibition was inactive: -14.1%.
Turning to `CCOC(=O)Cc1c(C)nc(N)[nH]c1=O`, the inhibition was inactive: -9.42%.
Regarding `COc1cc(SC)ccc1C(=O)NC(C)C`, the inhibition was inactive: 0.69%.
Take `COc1ccc(C(=O)NCCC2=CCCCC2)cc1[N+](=O)[O-]`: the inhibition was inactive: 4.64%.
As to `Cc1oc2cc(O)cc(O)c2c(=O)c1-c1ccc2c(c1)OCCCO2`, the inhibition was inactive: 12.4%.
As to `CC(C(=O)O)c1cccc(C(=O)c2ccccc2)c1` (stereo unspecified), the inhibition is inactive: -6.25%.
As for `Cc1ccc([N+](=O)[O-])cc1NC1OC(CO)C(O)C1O` (stereo unspecified), the figure is inactive: 5.59%; as for `Cc1ccccc1NC(=O)c1c(C)cc(=O)oc1C`, inactive: 1.27%; as for `O=C(CNC(=O)OCc1ccccc1)Oc1cc2oc(=O)cc(-c3ccccc3)c2cc1Cl`, inactive: -6.75%.
As to `CC1(C)Cc2nc3oc4c(NCc5ccccc5)ncnc4c3cc2CO1`, the inhibition was inactive: 9.62%.
In the case of `CCCC1O[C@@H]2C[C@H]3[C@@H]4CCC5=CC(=O)C=C[C@]5(C)[C@H]4[C@@H](O)C[C@]3(C)[C@]2(C(=O)CO)O1` (stereo partly specified) it was inactive: -4.15%.
Regarding `CC(=O)N1CCN2C(=O)C1CCCC(=O)c1cc(C(C)C)ccc12` (stereo unspecified), the inhibition was inactive: 0.71%.
As to `Cn1cnc2c1c(=O)n(CC(O)CO)c(=O)n2C` (stereo unspecified), the inhibition is inactive: -8.03%.
In the case of `CC(=O)OCC(=O)[C@@]1(O)[C@H](C)C[C@H]2[C@@H]3CCC4=CC(=O)C=C[C@]4(C)[C@@]3(F)[C@@H](O)C[C@@]21C`, the inhibition was inactive: -10.2%.
Consider `Cc1ccccc1NC(=O)NCCc1c[nH]c2ccccc12`, for which the inhibition is inactive: -8.65%.
Consider `Nc1nc2c(ncn2COCCO)c(=O)[nH]1`, for which the inhibition was inactive: -4.46%.
For `O=c1c2[nH]c3ccccc3c2ncn1CCC1=CCCCC1`, the inhibition was inactive: -6.62%.
As for `COc1ccc2nc(Nc3nc(CSc4ccc(C)cc4)cc(=O)[nH]3)nc(C)c2c1`, the inhibition is inactive: 4.18%.
In the case of `O=C(O)c1ccc(OCCn2ccnc2)cc1`, the inhibition is inactive: -0.12%.
For `C#C[C@]1(O)CC[C@H]2[C@@H]3CCc4cc(O)ccc4[C@H]3CC[C@@]21C`, the inhibition is inactive: 10.8%.
As for `Cc1occc(=O)c1O`, the figure is inactive: 2.41%.
Consider `CCOCCn1c(C(C)O)nc2ccccc21` (stereo unspecified), for which the inhibition is inactive: -12.2%.
On to `COc1cc2c(cc1OC)C(c1ccccc1)=NCC2`, for which the inhibition is inactive: 3.69%.
In the case of `COc1ccc(C(=O)Nc2cccnc2)cc1C(=O)Nc1cccnc1` it was inactive: 0.1%.
As for `CCC12CN3CC(CC)(CN(C1)C31C(=O)N(C)c3ccc(C)cc31)C2=O` (stereo unspecified), the figure is inactive: 5.09%; as for `N/C(=N\OC(=O)c1cccc(Br)c1)c1ccncc1`, inactive: 0.43%.
As for `Nc1cccc2nc3ccccc3cc12`, the inhibition was inactive: -7.62%.
As to `O=C(NC1CC1)C1CCN(C2CCN(C(=O)Cc3ccc(F)cc3)CC2)CC1`, the inhibition is inactive: -10.8%.
As for `CCCc1cc(=O)[nH]c(=S)[nH]1`, the inhibition is inactive: -2.08%.
With `COC(=O)CN1C(=S)N(c2ccc(F)cc2)C(=O)C1CC(=O)Nc1ccccc1` (stereo unspecified), the inhibition is inactive: 4.01%.
Regarding `COc1ccc(CCN(C)CCCC(C#N)(c2ccc(OC)c(OC)c2)C(C)C)cc1OC` (stereo unspecified), the inhibition is inactive: -9.72%.
On to `CNCCCC1c2ccccc2C=Cc2ccccc21`, for which the inhibition was inactive: -7.68%.
For `Cc1ccsc1/C=N\NC(=O)c1ccc2c(c1)OCO2`, the inhibition was inactive: -0.81%.
`O=C(O)CC(O)C(=O)O` (stereo unspecified): the inhibition is inactive: -4.33%.
In the case of `O=C(Nc1cccc(C(=O)O)c1)/C(=C\c1ccccc1)NC(=O)c1ccccc1`, the inhibition was inactive: -2.05%.
In the case of `C[C@]12CCC(=O)C=C1CC[C@@H]1[C@@H]2[C@@H](O)C[C@@]2(C)[C@H]1CC[C@]2(O)C(=O)CO`, the inhibition was inactive: -4.66%.
In the case of `CC(C)N(Cc1nccn1C)C(=O)CC1C(=O)NCCN1Cc1ccccc1C(F)(F)F` (stereo unspecified) it was inactive: -10.4%; in that of `COc1ccc(-c2coc3c(CN4CCOCC4)c(O)ccc3c2=O)cc1`, inactive: -12.6%.
In the case of `CC(=O)N1CCN(c2ccc(NC(=O)/C=C/c3ccccc3)cc2)CC1`, the inhibition was inactive: 5.07%.
As to `CC/C(=C1/C(=O)CC(C)(C)C(C(=O)OC)C1=O)N1CCCC1` (stereo unspecified), the inhibition is inactive: 6.45%.
Turning to `CC(=O)c1c(N)nc2n(c1=O)CCCCC2`, the inhibition is inactive: -12.3%.
On to `O=C(O)[C@@H](O)c1ccccc1`, for which the inhibition is inactive: 0.33%.
`C/C(CCc1oc2ccc(Cl)cc2c1-c1ccc(C)o1)=N\O`: the inhibition was inactive: 26.3%.
In the case of `Nc1nc(Cl)nc2c1ncn2[C@H]1C[C@H](O)[C@@H](CO)O1`, the inhibition was inactive: -3.58%.
With `Fc1ccc(C(c2ccc(F)cc2)N2CCN(C/C=C/c3ccccc3)CC2)cc1`, the inhibition was inactive: -5.56%.
`CCOC(=O)C(=O)Nc1ccc(Oc2ccccc2)cc1`: the inhibition is inactive: -8.65%.
As for `COc1ccccc1C(=O)Nc1cc2cc(Br)ccc2oc1=O`, the figure is inactive: -7.35%.
In the case of `CCCCC(=O)O[C@H]1CC[C@H]2[C@@H]3CCc4cc(O)ccc4[C@H]3CC[C@]12C` it was inactive: -8.52%.
As for `CC(=O)C1=C(O)C(=O)N(CC(=O)O)C1c1ccccc1Cl` (stereo unspecified), the figure is inactive: 0%; as for `N=C(N)c1ccc(OCCCCCOc2ccc(C(=N)N)cc2)cc1`, inactive: -0.96%.
As for `CCN(CC)CCN1C(=O)C(=O)/C(=C(/O)c2c(C)[nH]c(C(=O)OC)c2C)C1c1cccnc1` (stereo unspecified), the inhibition was inactive: -2.32%.
In the case of `CC1(C)Oc2ccc(C#N)cc2[C@@H](N2CCCC2=O)[C@@H]1O` it was inactive: 4.44%; in that of `O=C(NCc1ccccc1Cl)NC(=O)c1ccccc1`, inactive: 3.04%; in that of `CC[N+](C)(C)Cc1ccccc1Br`, inactive: -4.2%.
In the case of `Cc1oncc1C(=O)Nc1ccc(C(F)(F)F)cc1` it was inactive: 1.09%.
With `COc1ccc(C(Cl)=C(c2ccc(OC)cc2)c2ccc(OC)cc2)cc1`, the inhibition is inactive: -4.18%.
As to `O=C(O)c1cccnc1Nc1cccc(C(F)(F)F)c1`, the inhibition is inactive: -0.4%.
With `CC(CCc1ccccc1)NCC(O)c1ccc(O)c(C(N)=O)c1` (stereo unspecified), the inhibition is inactive: -7.73%.
Regarding `Cc1ccc(Cl)c(OCCCN(C)Cc2ccccc2)c1`, the inhibition was inactive: -11%.
In the case of `CCc1cc2c(=O)c(-c3ccc4c(c3)OCCO4)coc2c(CN2CCCCC2C)c1O` (stereo unspecified), the inhibition was inactive: 19.7%.
On to `Cc1[nH]nc(-c2ccc(O)cc2O)c1Oc1ccccc1`, for which the inhibition was inactive: 1.88%.
Regarding `C[C@]12CCC(=O)C=C1[C@H](O)C[C@@H]1[C@@H]2[C@@H](O)C[C@@]2(C)[C@H]1CC[C@]2(O)C(=O)CO`, the inhibition is inactive: -2.81%.
In the case of `CN(Cc1c(C(=O)N(C)Cc2ccccc2)nc2ccccn12)CC1Cc2ccccc2O1` (stereo unspecified) it was inactive: 6.36%.
Turning to `N/C(Cc1ccc(Cl)cc1Cl)=N\OC(=O)c1ccc(Br)o1`, the inhibition is inactive: 4.39%.
Take `OCCC1CN(Cc2nc(-c3ccccc3)cs2)CCN1Cc1ccc(F)cc1` (stereo unspecified): the inhibition is inactive: -5.63%.
As for `c1ccc2c(c1)CCOC2CNCCCN1CCCCC1` (stereo unspecified), the inhibition was inactive: -16.3%.
In the case of `CCN1C(=O)C(CC(=O)Nc2ccc(OC)cc2)N(CCc2ccc(F)cc2)C1=S` (stereo unspecified) it was inactive: -1.45%.
Turning to `Cc1ccc2c(c1)c1c3n2CCCNC3CCC1` (stereo unspecified), the inhibition was inactive: 0.07%.
In the case of `O=C(NCc1ccc(N2CCCC2=O)cc1)c1cccc(Cl)c1`, the inhibition is inactive: -4.06%.
For `COc1ccc(C2N3CC4(C)CN2CC(C)(C3)C4)cc1OC` (stereo unspecified), the inhibition is inactive: 2.2%.
As to `COc1ccc2c(c1OC)C(=O)OC2C1c2c(cc3c(c2OC)OCO3)CCN1C` (stereo unspecified), the inhibition is inactive: -9.84%.
In the case of `CCCN1C[C@H](CSC)C[C@@H]2c3cccc4[nH]cc(c34)C[C@H]21` it was inactive: 1.67%.
On to `COc1ccc(CCNC(=O)c2ccc(Cl)cc2)cc1OC`, for which the inhibition was inactive: -3.15%.
Turning to `CCC(=O)Oc1ccc(/C(CC)=C(\CC)c2ccc(OC(=O)CC)cc2)cc1`, the inhibition is inactive: 4.75%.
In the case of `COc1ccc2[nH]cc(C(=O)CCl)c2c1` it was inactive: 11.7%.
For `CCN1C(=O)C(CC(=O)Nc2ccc(F)cc2)N(Cc2ccco2)C1=S` (stereo unspecified), the inhibition was inactive: 22%.
Consider `Nc1cccc(C(=O)O)c1`, for which the inhibition is inactive: -4.68%.
Consider `COc1cc(CNCc2ccc(OC)c(OC)c2OC)cc(OC)c1`, for which the inhibition was inactive: -5.82%.
With `Cn1c(SCC(=O)c2ccccc2)nnc1-c1ccncc1`, the inhibition was inactive: -1.23%.
As to `CN(C)CCCN1c2ccccc2Sc2ccccc21`, the inhibition was inactive: -13%.
`COc1ccc(N2C(=O)[C@@H]3[C@H](C2=O)[C@H]2c4ccccc4C=CN2[C@@H]3C(C)=O)cc1`: the inhibition was inactive: 3.22%.
On to `Cc1cc(C(C)(C)C)c(O)c(C)c1CC1=NCCN1`, for which the inhibition was inactive: -1.18%.
As to `Nc1c(C(=O)c2ccccc2)oc2ccccc12`, the inhibition was inactive: -1%.
With `CC(=O)N(CCC(Cc1ccccc1)c1ccco1)Cc1ccco1` (stereo unspecified), the inhibition was inactive: 39.1%.

For the origin of these results see PubChem BioAssay AID493035 (The Scripps Research Institute Molecular Screening Center, 2011).
